Experimental data reported in publication PMC4336329 (PLoS ONE, 2015).
Out of some 310,000 compounds screened, about 14,000 (4.5%) showed an effect of 50% or more. The effect is printed as a negative number. This is one part of the list.

molecular target: human ether-à-go-go-related gene (hERG) potassium channel (human, UniProt Q12809); test: primary screen, population patch clamp on CHO cells stably expressing hERG
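Also: peak tail current of the secondary pulse compared with the same well before compound.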

Chain of human ether-à-go-go-related gene (hERG) potassium channel (Q12809 whole entry, looked up): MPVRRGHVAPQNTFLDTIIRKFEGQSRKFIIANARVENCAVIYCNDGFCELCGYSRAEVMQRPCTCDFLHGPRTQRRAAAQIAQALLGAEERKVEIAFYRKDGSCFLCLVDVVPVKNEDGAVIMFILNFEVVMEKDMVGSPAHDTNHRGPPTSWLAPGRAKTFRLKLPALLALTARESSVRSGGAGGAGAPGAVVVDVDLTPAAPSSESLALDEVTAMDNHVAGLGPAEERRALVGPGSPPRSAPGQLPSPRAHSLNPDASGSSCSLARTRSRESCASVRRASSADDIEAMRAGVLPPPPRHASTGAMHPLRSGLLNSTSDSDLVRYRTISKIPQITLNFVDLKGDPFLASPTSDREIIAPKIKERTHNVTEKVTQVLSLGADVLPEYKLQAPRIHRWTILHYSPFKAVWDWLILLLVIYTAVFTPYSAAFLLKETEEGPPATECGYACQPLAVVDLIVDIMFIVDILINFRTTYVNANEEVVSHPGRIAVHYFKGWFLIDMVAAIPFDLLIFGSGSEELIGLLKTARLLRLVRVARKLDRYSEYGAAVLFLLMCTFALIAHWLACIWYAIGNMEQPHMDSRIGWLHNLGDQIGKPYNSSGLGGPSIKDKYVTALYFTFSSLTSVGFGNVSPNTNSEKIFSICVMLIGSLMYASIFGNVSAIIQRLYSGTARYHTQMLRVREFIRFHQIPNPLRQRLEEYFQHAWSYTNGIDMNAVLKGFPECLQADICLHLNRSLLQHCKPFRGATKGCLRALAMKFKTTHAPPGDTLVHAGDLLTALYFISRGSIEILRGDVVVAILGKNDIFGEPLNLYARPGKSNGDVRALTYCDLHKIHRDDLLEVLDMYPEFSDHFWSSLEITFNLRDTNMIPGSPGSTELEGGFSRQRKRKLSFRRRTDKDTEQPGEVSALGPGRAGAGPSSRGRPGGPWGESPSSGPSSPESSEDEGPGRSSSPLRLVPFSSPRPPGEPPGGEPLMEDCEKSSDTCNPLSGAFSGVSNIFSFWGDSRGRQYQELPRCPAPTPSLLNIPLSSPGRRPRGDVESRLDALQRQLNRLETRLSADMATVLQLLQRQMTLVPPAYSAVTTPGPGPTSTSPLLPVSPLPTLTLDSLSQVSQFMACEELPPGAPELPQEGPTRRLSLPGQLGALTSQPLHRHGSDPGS

Row | SMILES | hERG current change (%, negative = inhibition) at 10uM
1 | CCc1ccc(NC(=O)/C(C#N)=C/c2ccncc2)cc1 | -24.7%
2 | CCOc1ccc(CCNc2ccc3nnc(-c4ccccc4)n3n2)cc1OCC | 1.95%
3 | Cc1ccc(NC(=O)C2CCCN(S(=O)(=O)c3c(C)noc3C)C2)c(C)c1 (centres unmarked) | -10.9%
4 | CC(=O)c1sc2nc(C)cc(C)c2c1N | -8.84%
5 | CCOC(=O)c1ccc(NS(=O)(=O)c2c(C)n(C)c(=O)n(C)c2=O)cc1 | -26.6%
6 | O=C(NCc1cccnc1)c1ccccc1CCc1ccccc1 | -20.7%
7 | CCOc1ccc(CCNC(=O)COC(=O)/C=C/c2ccc(OC(F)F)c(OC)c2)cc1OCC | -15.2%
8 | CCOc1ccccc1C(=O)OCC(=O)Nc1ccc(N2CCCCC2)cc1 | 4.96%
9 | CCN1CCN(c2nnc(-c3ccccc3)c3ccccc23)CC1 | -36.8%
10 | O=S(=O)(c1ccc(-c2cn3ccccc3n2)cc1)N1CCOCC1 | 2.71%
11 | CN(C)S(=O)(=O)c1cccc(NC(=S)NCCc2ccccn2)c1 | 28.5%
12 | COc1cccc(-n2nnnc2SCC(=O)Nc2cccc(C)n2)c1 | -7.58%
13 | COC(=O)c1ccc(C(=O)OC)c(NC(=O)COC(=O)C2CC2C)c1 (centres unmarked) | -21.4%
14 | O=C(c1ccccc1[N+](=O)[O-])N1CCCN(C(=O)c2ccccc2[N+](=O)[O-])CC1 | -14.8%
15 | O=C(Nc1ccnn1C1CCN(C2CCC2)CC1)c1ccccc1Cl | -63.6%
16 | O=C(NCc1ccccn1)c1ccc(Br)s1 | -9.41%
17 | OCC#Cc1ncc(C(F)(F)F)cc1Cl | 25.4%
18 | C/C(=N/NC(=O)c1ccco1)c1cccc(NC(=O)c2ccc(C)o2)c1 | -45.4%
19 | O=C(Nc1ccc(O)c(-c2nc3ccccc3o2)c1)C1(c2ccc(Cl)cc2)CCCC1 | 6.17%

Row | SMILES | hERG current change (%, negative = inhibition) at 10uM
20 | Cc1ccc(C(=O)Nc2nnc(C)s2)o1 | -11.4%
21 | COc1ccc(-n2nnnc2-c2nc3ccccc3s2)cc1 | -15.7%
22 | O=C(N/N=C/c1cccc(O)c1)c1cc(-c2ccc3c(c2)OCO3)n[nH]1 | 5.82%
23 | CN(CC(=O)Nc1ccc2c(c1)OCCO2)S(=O)(=O)c1ccc(F)cc1 | -1.58%
24 | Cc1cccc(C)c1NC(=O)CN.Cl | 8.46%
25 | Cc1ccc(NC(=O)COC(=O)CCc2nc3ccccc3c(=O)[nH]2)c(Br)c1 | -0.374%
26 | CCc1nc2cc(Cl)c(Cl)cc2nc1CC | 13.5%
27 | COc1nc(N(CC(N)=O)S(=O)(=O)c2ccccc2)nc(C)c1Cl | 2.79%
28 | OCC1(Cc2ccccc2F)CCCN(CC2CCCCC2)C1 (centres unmarked) | -37.7%
29 | CN1C(=O)N(C)c2ccc(Br)c3cccc1c23 | 23.5%
30 | CC(C)(C)NC(=O)NC(=O)COC(=O)Cc1c(F)cccc1Cl | -1.29%
31 | COc1ccc(CCNCC(O)COc2c(C)cccc2C)cc1OC.O=C(O)C(=O)O (centres unmarked) | 6.84%
32 | CC1CCN(S(=O)(=O)c2ccc(C(=O)NNC(=O)C3CC3)cc2)CC1 | 3.28%
33 | O=C(CNc1cccc(F)c1)N1CCc2ccccc2C1 | -8.87%
34 | Cc1cc(C)c(-c2c(O)c3cccnc3n(C)c2=O)c(C)c1 | 24.9%
35 | COCCOC(=O)CC1=NC(=O)CS1 | 4.88%
36 | CCC(C)(C)n1nnnc1C(c1cccc(C#N)c1)N1CCN(c2cccc(C)c2C)CC1 (centres unmarked) | 12.6%
37 | C=CCNC(=S)N/N=C(\C)c1ccc(OC)cc1 | -3.74%
38 | COc1ccc(Cl)cc1CSc1n[nH]c(C)n1 | 14.7%

Row | SMILES | hERG current change (%, negative = inhibition) at 10uM
39 | Cn1c(SCC(=O)N2CCN(C(=O)c3ccco3)CC2)nnc1-c1ccc(NS(C)(=O)=O)cc1 | 17.4%
40 | O=C(c1ccc(OC2CCN(Cc3ccccn3)CC2)cc1)N1CCCC(O)C1 (centres unmarked) | 13.3%
41 | COc1cccc(C2CC(C(F)(F)F)n3nc(C(=O)Nc4c(C)n(C)n(-c5ccccc5)c4=O)cc3N2)c1 (centres unmarked) | 5.29%
42 | O=C(CN(Cc1ccco1)C(=O)CNS(=O)(=O)c1ccccc1)NCc1ccc(F)cc1 | -34.5%
43 | Cc1onc(-c2c(Cl)cccc2Cl)c1C(=O)NC(C)(C)CO | -15.3%
44 | Cc1cc2c(cc1S(=O)(=O)N1CCN(c3cccc(C)c3C)CC1)OCCN2C | -6.6%
45 | COc1ccc(Cl)cc1N1CCN(CCNC(=O)Nc2ccccc2C)CC1 | -40.1%
46 | O=C1CC(c2ccsc2)Sc2ccccc2N1 (centres unmarked) | -30%
47 | COc1ccc(/C=C2/C(=O)NC(=O)N(C3CCCCC3)C2=O)cc1CSc1ccccn1 | 12.4%
48 | Cc1ccc(S(=O)(=O)N(CC(=O)Nc2cccnc2)c2cccc(Br)c2)cc1 | -11.5%
49 | CCNC(=S)N(Cc1ccco1)Cc1cc2cc3c(cc2[nH]c1=O)OCCO3 | 3.89%
50 | COc1cc(Cl)c(C)cc1NC(=O)Cc1ccc(OC)c(OC)c1 | -3.03%
51 | O=C(NCCCN1CCOCC1)C(=O)N/N=C/c1ccccc1Cl | -4.55%
52 | CC(=O)N/C(=C\c1ccc(F)cc1)C(=O)OCc1ccccc1 | -19.2%
53 | O=C(O)c1cccc(NS(=O)(=O)c2ccc(-c3ccc(S(=O)(=O)Nc4cccc(C(=O)O)c4)cc3)cc2)c1 | 35.7%
54 | CN(CC(=O)Nc1ccc(Cl)c(C(F)(F)F)c1)C(=O)CCN1C(=O)C2CCCCC2C1=O (centres unmarked) | -50.2%
55 | Cc1ccc(Cn2c(=O)c3ccccc3n3c(CCC(=O)O)nnc23)cc1 | 10.9%
56 | O=C(Cn1ccc([N+](=O)[O-])n1)NCc1nc2ccccc2[nH]1 | 7.31%
